Source: the antibiotic and cytotoxicity screens of Wong et al. (2023)
The list shows a part of the results.

Assays:
[1] = test system: HSkMC (human skeletal muscle cells); experiment: cytotoxicity call (relative viability < 0.9); conditions: 10 µM
[2] = test system: HepG2; experiment: cytotoxicity call (relative viability < 0.9); conditions: 10 µM
[3] = test system: S. aureus RN4220; experiment: growth inhibition call (relative growth <= 0.2); conditions: 50 µM

SMILES | cytotoxicity call [1] | cytotoxicity call [2] | growth inhibition call [3]
COc1ccccc1NC(=O)N(C)C[C@H]1Oc2ncc(C#CCN(C)C)cc2C(=O)N([C@H](C)CO)C[C@@H]1C | inactive | inactive | inactive
Cc1ccccc1-c1ccc(N)cc1 | inactive | inactive | inactive
C[C@H](CO)N1C[C@H](C)[C@H](CN(C)C(=O)Nc2ccc(C(F)(F)F)cc2)Oc2c(NS(=O)(=O)c3ccc(Cl)cc3)cccc2C1=O | active | active | inactive
CN(C)c1nc2cc(Cl)ccc2o1 | inactive | inactive | inactive
COc1ccc(CNC(=O)C[C@@H]2C[C@H]3c4cc(NC(=O)NC5CCCC5)ccc4O[C@H]3[C@@H](CO)O2)cc1 | inactive | inactive | inactive
CN1C(=O)c2cc(NC(=O)c3ccc(F)c(F)c3)ccc2OC[C@@H]2O[C@@H](CC(=O)N3CCOCC3)CC[C@@H]21 | inactive | inactive | inactive
C[C@H](CO)N1C[C@H](C)[C@H](CN(C)Cc2ccc(Cl)c(Cl)c2)Oc2c(NC(=O)NC3CCCCC3)cccc2C1=O | inactive | inactive | inactive
COc1ccccc1C#Cc1ccc2c(c1)O[C@@H](CN(C)Cc1ccncc1)[C@H](C)CN([C@@H](C)CO)S2(=O)=O | active | inactive | inactive
COc1c(C)cccc1C(=O)N1CC[C@H](c2nn(CCN)c3ncccc23)C1 | inactive | inactive | inactive
O=C(C[C@H]1C=C[C@@H](NC(=O)c2cnccn2)[C@H](CO)O1)NCc1ccccc1F | inactive | inactive | inactive
CO[C@H](CN(C)S(=O)(=O)c1cn(C)cn1)[C@@H](C)CN(C(=O)Nc1ccc(C(F)(F)F)cc1)[C@@H](C)CO | inactive | inactive | active
